Measured values published in patent US11999786B2, “Anti-CD48 antibodies, antibody drug conjugates, and uses thereof” (Novartis AG, priority 2020, dated 2024).
Several values for one entry are separate records, joined by “and”; a condition that tells them apart may be missing. Equal values may be shown once. Entries after “also recorded” stand apart in the source; their conditions may differ.

Assays:
[1] = test system: KMS-27, NCI-H929 and KMS-21-BM cancer cell lines; test: Internalization and cell proliferation assay, statements across the three cancer cell lines; format: cell-based; settings: secondary ADC at 60 nM, 5 days
Description: (§1) The internalization activity of CD48 antibodies were tested against three endogenous cancer cell lines: KMS-27: JCRB No. JCRB1188 cultured in RPMI-1640+10% FBS; NCI-H929: ATCC No. CRL-9068 cultured in RPMI-1640+10% FBS+0.05 mM 2-mercaptoethanol; and KMS-21-BM: JCRB No. JCRB1185 cultured in RPMI-1640+10% FBS.
(§2) CD48 antibodies were synthesized and expressed generally as described in Example 5. Cell lines were cultured in media that is optimal for their growth at 5% CO2, 37° C. in a tissue culture incubator. Prior to seeding for the proliferation assay, the cells were split at least 2 days before the assay to ensure optimal growth density. On the day of seeding, cell viability and cell density were determined using a cell counter (Vi-Cell XR Cell Viability Analyzer, Beckman Coulter). Cells with higher than 85% viability were seeded in white clear bottom 384-well TC treated plates (Corning cat. #3765). […] Plates were incubated at 5% CO2, 37° C. for 5 days in a tissue culture incubator, after which cell viability was assessed through the addition of 25 μL of CellTiter Glo® (Promega, cat #G7573), a reagent which lyses cells and measures total adenosine triphosphate (ATP) content. Plates were incubated at room temperature for 10 minutes to stabilize luminescent signals prior to reading using a luminescence reader (EnVision Multilabel Plate Reader, PerkinElmer). […]

[2] = test system: recombinant cynomolgus CD48 (cyCD48-huFc); test: ELISA binding of purified antibodies to recombinant CD48; settings: plate coated at 5 μg/mL
Description: (§3) Purified Antibodies tested in ELISA for binding to recombinant human and cynomolgus CD48. Black Maxisorp™ (Nunc) 384 well plates (Thermofischer, 460518) were coated with 20 μl huCD48-huFc, cyCD48-huFc, huCD48-bio, or BSA as control (Sigma, A7906) diluted in PBS at 5 μg/mL overnight at 4° C. The next day, plates were washed three times with 120 μL/well with TBST (TBS-0.05% Tween20). Plates were blocked with 120 μL/well of 5% milk powder/PBS for 3 h at room temperature and washed three times with 120 μL/well with TBST. Antibodies were 1:3 diluted from 100 nM down to 45 μM and 20 μL/well added. After 1 hour incubation at room temperature, plates were washed 3 times with 120 μL/well with TBST. For detection, 20 μl AP conjugated anti-hulgG, Fab fragment specific (Jackson, 109-055-097) in 0.25% milk powder/PBS+0.05% Tween20 at 1:5000 dilution was added per well. After 1 hour incubation at room temperature, plates were washed 3 times with 120 μL/well with TBST. Attophos fluorescence substrate (Roche, 11681982001) was diluted 1:5 in water and 20 μL/well added, incubated for 10 min and the absorbance measured at 405 nm.

[3] = target: T1, recombinant human CD48 (huCD48-huFc, huCD48-bio) (Homo sapiens, UniProt P09326); test: as above; settings: plate coated at 5 μg/mL
T1 sequence (P09326 27-220 limits assumed): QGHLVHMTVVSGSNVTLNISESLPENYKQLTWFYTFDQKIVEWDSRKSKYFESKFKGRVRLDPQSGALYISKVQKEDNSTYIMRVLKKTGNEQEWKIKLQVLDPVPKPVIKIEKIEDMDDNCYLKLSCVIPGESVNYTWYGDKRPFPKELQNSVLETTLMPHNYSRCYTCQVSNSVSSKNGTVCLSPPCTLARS
Description: as §3

[4] = test system: cynomolgus CD48 over expressing HKB11 cells; test: FACS binding of purified antibodies to cell expressed CD48; settings: antibodies at 100, 10 and 1 μg/ml
Description: (§4) Purified Antibodies tested for binding to cell expressed human and cynomolgus CD48. 5×10^5 human or cynomolgus CD48 over expressing HKB11 cells as well as wild type cells were applied per staining in one well of 96 well plate (Thermo Fischer, Nunclon Delta Surface 163320). Antibodies were applied in 3 concentrations, 100, 10, and, 1 μg/ml. Antibodies were diluted in 50 μl PBS/1% FCS (FACS buffer) per well and incubate for 30 minutes on ice. Wells were washes 2 times with 250 μl FACS buffer by centrifugation at 300 g for 2 minutes and removing the supernatant by flipping the plate and patting on paper. For detection, 50 μl 1:2000 in FACS buffer diluted mouse anti-human Fab, PE-conjugated (Jackson-109-116-097) was added per well and incubate for 30 minutes on ice in the dark. Cells were washes 2 times with 250 μl FACS buffer and suspend in 200 μl FACS buffer per well for FACS analysis. Cells were analyzed on a BD Calibur.

[5] = target: T2, human CD48 over expressing HKB11 cells (Homo sapiens, UniProt P09326); test: as above; settings: antibodies at 100, 10 and 1 μg/ml
T2 construct: expressed in transfected cells
T2 sequence (P09326 27-243): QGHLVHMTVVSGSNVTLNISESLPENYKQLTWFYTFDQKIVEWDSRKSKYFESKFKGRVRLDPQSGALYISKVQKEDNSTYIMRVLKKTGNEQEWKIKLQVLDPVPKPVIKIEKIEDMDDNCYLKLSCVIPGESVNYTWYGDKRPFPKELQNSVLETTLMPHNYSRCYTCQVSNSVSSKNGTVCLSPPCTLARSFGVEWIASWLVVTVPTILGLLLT
Description: as §4

cyno CD48 = test: KD determination of WT and DAPA IgG by Biacore (Protein A capture), Example 7; format: binding; settings: antigen Cyno CD48, Biacore Protein A capture, Exp# 1 and 2
Description: (§5) Binding to human and cyno CD48 for the WT IgG and DAPA (D265A and […] mutation) variant was assessed for affinity determinations using Biacore. Kinetic rate constants was performed via SPR using the Biacore T200 instrument (Cytiva, formerly GE Healthcare Lifesciences) as described below. The Protein A capture method was utilized in order to determine kinetics for the antibodies. […] The human CD48 and cyno CD48 concentration started at 50 nM and 200 nM respectively, and were serially diluted at one part to one part for nine concentrations. Regeneration was performed at the end of each concentration washing with the Glycine pH1.5 (Cytiva, cat #BR100354). Double reference subtraction was completed to generate the final data. The raw data was fitted to a 1:1 binding model, with parameter(s) Rmax set to local.

human CD48 = target: T3, human CD48 (Homo sapiens, UniProt P09326); test: as above; format: binding; settings: antigen Human CD48, Biacore Protein A capture, Exp# 1 and 2
T3 sequence (P09326 27-220): T1 sequence (P09326 27-220 limits assumed)
Description: as §5

KMS-21-BM = test: Internalization and cell proliferation assay (CellTiter-Glo, with secondary anti-human Fc-VC-MMAE ADC); format: cell-based
Description: as §1
as §2, with “#3765). Cells were seeded at a density of 1,000 cells per well in 40 μL of standard growth media. Plates were incubated at 5% CO2, 37° C. overnight in a tissue culture incubator. The next day free MMAE payload, a CD48A-CysMab-VC-MMAE ADC (synthesis described in Example 5), CD48 antibodies, and a non-targeting isotype antibody were prepared at 10× in standard growth media. The MMAE free payload and CD48A-CysMab-VC-MMAE ADC were added to the cells resulting in final concentrations of 0.007-150 nM and a final volume of 50 μL per well. The prepared antibody treatments, including CD48 IgGs and a non-targeting isotype antibody, were then added to the cells resulting in final concentrations of 0.001-20 nM and a final volume of 45 μL per well.” for “#3765).”

KMS-27 = test: as above; format: cell-based; settings: KMS-27, CellTiter-Glo
Description: as §1
as §2, with “#3765). Cells were seeded at a density of 1,000 cells per well in 40 μL of standard growth media. Plates were incubated at 5% CO2, 37° C. overnight in a tissue culture incubator. The next day free MMAE payload, a CD48A-CysMab-VC-MMAE ADC (synthesis described in Example 5), CD48 antibodies, and a non-targeting isotype antibody were prepared at 10× in standard growth media. The MMAE free payload and CD48A-CysMab-VC-MMAE ADC were added to the cells resulting in final concentrations of 0.007-150 nM and a final volume of 50 μL per well. The prepared antibody treatments, including CD48 IgGs and a non-targeting isotype antibody, were then added to the cells resulting in final concentrations of 0.001-20 nM and a final volume of 45 μL per well.” for “#3765).”

NCI-H929 = test: as above; format: cell-based
Description: as §1
as §2, with “#3765). Cells were seeded at a density of 1,000 cells per well in 40 μL of standard growth media. Plates were incubated at 5% CO2, 37° C. overnight in a tissue culture incubator. The next day free MMAE payload, a CD48A-CysMab-VC-MMAE ADC (synthesis described in Example 5), CD48 antibodies, and a non-targeting isotype antibody were prepared at 10× in standard growth media. The MMAE free payload and CD48A-CysMab-VC-MMAE ADC were added to the cells resulting in final concentrations of 0.007-150 nM and a final volume of 50 μL per well. The prepared antibody treatments, including CD48 IgGs and a non-targeting isotype antibody, were then added to the cells resulting in final concentrations of 0.001-20 nM and a final volume of 45 μL per well.” for “#3765).”

B1: NY938: anti-CD48 antibody, heavy chain SEQ ID NO:65, light chain SEQ ID NO:51; affinity matured from NY258 (antibody)
heavy: QVQLVQSGAEVKKPGASVKVSCKASGYTFTEYTMHWVRQAPGQGLEWMGGINPDTGDTSYNQKFTGRATLTVDKSTSTAYMELSSLRSEDTAVYYCARAQFWTTPRFAYWGQGTLVTVSSASTKGPSVFPLAPSSKSTSGGTAALGCLVKDYFPEPVTVSWNSGALTSGVHTFPAVLQSSGLYSLSSVVTVPSSSLGTQTYICNVNHKPSNTKVDKRV[omitted - human IgG1 Fc]
light: DIQMTQSPSSLSASVGDRVTITCKASQDVGTAVAWYQQKPGKVPKLLIYWASTRHTGVPSRFSGSGSGTDFTLTISSLQPEDVATYYCQQYSTYPITFGQGTKLEIKRTVAAPSVFIFPPSDEQLKSGTASVVCLLNNFYPREAKVQWKVDNALQSGNSQESVTEQDSKDSTYSLSSTLTLSKADYEKHKVYACEVTHQGLSSPVTKSFNRGEC
cell killing when dosed in combination with anti-human Fc-VC-MMAE ADC [1]: activity greater than that of CD48A; also recorded: more potent than CD48A | binding to recombinant cynomolgus CD48 (ELISA) [2]: specific binding | binding to recombinant human CD48 (ELISA) [3]: specific binding | binding to cell expressed cynomolgus CD48 (FACS) [4]: specific binding | binding to cell expressed human CD48 (FACS) [5]: specific binding

B2: NY938 DAPA: DAPA (D265A and P329A mutation) variant of NY938 IgG (antibody)
heavy: QVQLVQSGAEVKKPGASVKVSCKASGYTFTEYTMHWVRQAPGQGLEWMGGINPDTGDTSYNQKFTGRATLTVDKSTSTAYMELSSLRSEDTAVYYCARAQFWTTPRFAYWGQGTLVTVSSASTKGPSVFPLAPSSKSTSGGTAALGCLVKDYFPEPVTVSWNSGALTSGVHTFPAVLQSSGLYSLSSVVTVPSSSLGTQTYICNVNHKPSNTKVDKRV[omitted - human IgG1 Fc with D265A P329A (EU numbers)]
light: B1 light
ka (cyno CD48): 271000 M⁻¹ s⁻¹ and 409000 M⁻¹ s⁻¹ | kd (cyno CD48): 0.000289 s⁻¹ and 0.000316 s⁻¹ | ka (human CD48): 456000 M⁻¹ s⁻¹ and 352000 M⁻¹ s⁻¹ | kd (human CD48): 0.000115 s⁻¹ and 0.000104 s⁻¹

B3: CD48A-CysMab-VC-MMAE (conjugate)
heavy: QVQLVQSGSELKKPGASVKVSCKASGYTFTDFGMNWVRQAPGQGLEWMGWINTFTGEPSYGNVFKGRFVFSLDTSVSTAYLQISSLKAEDTAVYYCARRHGNGNVFDSWGQGTLVTVSSATKGPSVFPLAPSSKSTSGGTAALGCLVKDYFPCPVTVSWNSGALTSGVHTFPAVLQSSGLYSLSSVVTVPSSSLGTQTYICNVNHKPSNTKVDKRV[omitted - human IgG1 Fc with S375C (EU numbers)]
light: EIVLTQSPDFQSVTPKEKVTITCRASQSIGSNIHWYQQKPDQSPKLLIKYTSESISGVPSRFSGSGSGTDFTLTINSLEAEDAATYYCQQSNSWPLTFGGGTKVEIKRTVAAPSVFIFPPSDEQLKSGTASVVCLLNNFYPREAKVQWKVDNALQSGNSQESVTEQDSKDSTYSLSSTLTLSKADYEKHKVYACEVTHQGLSSPVTKSFNRGEC
Span (Amax) (KMS-21-BM): 100.4 | Span (Amax) (KMS-27): 92.9 | Span (Amax) (NCI-H929): 142.4
